Experimental data from the supplement of paper PMC12217912.
Some of the results follow. The full chains were built here from the parent and the listed change. Inactive controls read about 0.05.

B1: TEV protease; numbered along this chain (parent)
chain: MGESLFKGPRDYNPISSSICHLTNESDGHTTSLYGIGFGPFIITNKHLFRRNNGTLVVQSLHGVFKVKDTTTLQQHLVDGRDMIIIRMPKDFPPFPQKLKFREPQREERICLVTTNFQTKSMSSMVSDTSCTFPSGDGIFWKHWIQTKDGQCGSPLVSTRDGFIVGIHSASNFTNTNNYFTSVPKNFMELLTNQEAQQWVSGWRLNADSVLWGGHKVFMVKPEEPFQPVKEATQL

Variants of: B1
Assay: raw area under fraction-flipped curve 0-4 h after induction (AUC4h, not background-subtracted), DNA-recorder readout of cleavage of the substrate (dimensionless); higher = more cleavage of the substrate by the protease variant
Conditions: temperature: 34 °C; time window: 0-4 h after rhamnose induction
Procedure: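 In vivo DNA recorder in E. coli TOP10(DE3) ΔrhaA at 34 °C. Each TEVp single-site mutant (parent TEVp 0) is paired with a single-site variant of the 7-mer TEVs (canonical ENLYFQ|S). The substrate sits between flexible linkers in a Bxb1-sfGFP-TEVs-SsrA fusion, so cleavage stabilises Bxb1 and speeds flipping of a recombination array, read by NGS. The value is the raw area under the fraction-flipped curve over 0-4 h after rhamnose induction (AUC4h), with ≥20 reads per time point. It is not background-subtracted; inactive controls average about 0.047.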
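Further: Bxb1 expression induced with 0.2% (w/v) L-rhamnose at OD600 near 0.5, cultures sampled hourly, flipped fraction per protease–substrate barcode pair counted by paired-end Illumina sequencing.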

Variant | area with substrate EALYFQS | area with substrate ECLYFQS | area with substrate EDLYFQS | area with substrate EELYFQS | area with substrate EILYFQS | area with substrate EPLYFQS | area with substrate EQLYFQS | area with substrate ERLYFQS | area with substrate ESLYFQS | area with substrate ETLYFQS | area with substrate EVLYFQS | area with substrate EYLYFQS | area with substrate EFLYFQS | area with substrate EHLYFQS | area with substrate EKLYFQS | area with substrate ELLYFQS | area with substrate EWLYFQS | area with substrate EMLYFQS | area with substrate EGLYFQS
MGESLFKGPRDYNPISSSICHLTNESDGHTTSLYGIGFGPFIITNKHLFRRNNGTLVVQSLHGVFKVKDTTTLQQRLVDGRDMIIIRMPKDFPPFPQKLKFREPQREERICLVTTNFQTKSMSSMVSDTSCTFPSGDGIFWKHWIQTKDGQCGSPLVSTRDGFIVGIHSASNFTNTNNYFTSVPKNFMELLTNQEAQQWVSGWRLNADSVLWGGHKVFMVKPEEPFQPVKEATQL [H76R] | 0.104 | 0.0883 | 0.0835 | 0.111 | 0.0692 | 0.0668 | 0.0793 | 0.0596 | 0.0743 | 0.0688 | 0.0802 | 0.069 |  |  |  |  |  |  | 
MGESLFKGPRDYNPISSSICHLTNESDGHTTSLYGIGFGPFIITNKHLFRRNNGTLVVQSLHGVFKVKDTTTLQQHLVDGRDMIRIRMPKDFPPFPQKLKFREPQREERICLVTTNFQTKSMSSMVSDTSCTFPSGDGIFWKHWIQTKDGQCGSPLVSTRDGFIVGIHSASNFTNTNNYFTSVPKNFMELLTNQEAQQWVSGWRLNADSVLWGGHKVFMVKPEEPFQPVKEATQL [I85R] | 0.0693 | 0.0544 | 0.0384 |  | 0.0581 | 0.051 | 0.0572 | 0.0575 | 0.0651 |  |  | 0.056 | 0.0717 | 0.0633 | 0.0455 | 0.0417 | 0.0601 |  | 
MGESLFKGPRDYNPISSSICHLTNESDGHTTSLYGIGFGPFIITNKHLFRRNNGTLVVQSLHGVFKVKDTTTLQRHLVDGRDMIIIRMPKDFPPFPQKLKFREPQREERICLVTTNFQTKSMSSMVSDTSCTFPSGDGIFWKHWIQTKDGQCGSPLVSTRDGFIVGIHSASNFTNTNNYFTSVPKNFMELLTNQEAQQWVSGWRLNADSVLWGGHKVFMVKPEEPFQPVKEATQL [Q75R] | 0.0946 | 0.06 | 0.0676 | 0.0756 | 0.0231 | 0.0614 | 0.0476 | 0.0622 | 0.0555 | 0.057 | 0.0683 | 0.0521 |  |  | 0.0594 | 0.0611 | 0.0669 | 0.0509 | 
MGESLFKGPRDYNPISSSICHLTNESDGHTTSLYGIGFGPFIITNKHLFRRNNGTLVVQSLHGVFKVKDTTTLQQHLVDGRDDIIIRMPKDFPPFPQKLKFREPQREERICLVTTNFQTKSMSSMVSDTSCTFPSGDGIFWKHWIQTKDGQCGSPLVSTRDGFIVGIHSASNFTNTNNYFTSVPKNFMELLTNQEAQQWVSGWRLNADSVLWGGHKVFMVKPEEPFQPVKEATQL [M83D] | 0.0468 | 0.0578 | 0.065 | 0.0567 | 0.0242 | 0.0565 | 0.0546 | 0.0607 | 0.0488 | 0.0348 |  | 0.0465 |  | 0.0379 | 0.0501 |  | 0.0568 | 0.0652 | 0.0756
MGESLFKGPRDYNPISSSICHLTNESDGHTTSLYGIGFGPFIITNKHLFRRNNGTLVVQSLHGVFKVKDTTTLQQHHVDGRDMIIIRMPKDFPPFPQKLKFREPQREERICLVTTNFQTKSMSSMVSDTSCTFPSGDGIFWKHWIQTKDGQCGSPLVSTRDGFIVGIHSASNFTNTNNYFTSVPKNFMELLTNQEAQQWVSGWRLNADSVLWGGHKVFMVKPEEPFQPVKEATQL [L77H] | 0.0571 | 0.0623 | 0.0639 | 0.079 | 0.0692 | 0.0701 | 0.06 | 0.0655 | 0.0513 |  |  |  | 0.11 | 0.0677 | 0.0647 | 0.056 | 0.0784 | 0.0677 | 
MGESLFKGPRDYNPISSSICHLTNESDGHTTSLYGIGFGPFIITNKHLFRRNNGTLVVQSLHGVFKVKDTTTLQQHIVDGRDMIIIRMPKDFPPFPQKLKFREPQREERICLVTTNFQTKSMSSMVSDTSCTFPSGDGIFWKHWIQTKDGQCGSPLVSTRDGFIVGIHSASNFTNTNNYFTSVPKNFMELLTNQEAQQWVSGWRLNADSVLWGGHKVFMVKPEEPFQPVKEATQL [L77I] | 0.149 | 0.0907 | 0.0981 |  | 0.0796 | 0.0939 | 0.0899 |  | 0.0898 |  | 0.092 |  | 0.0889 | 0.107 | 0.0839 |  | 0.0846 | 0.0887 | 0.0615
MGESLFKGPRDYNPISSSICHLTNESDGHTTSLYGIGFGPFIITNKHLFRRNNGTLVVQSLHGVFKVKDTTTLQQHYVDGRDMIIIRMPKDFPPFPQKLKFREPQREERICLVTTNFQTKSMSSMVSDTSCTFPSGDGIFWKHWIQTKDGQCGSPLVSTRDGFIVGIHSASNFTNTNNYFTSVPKNFMELLTNQEAQQWVSGWRLNADSVLWGGHKVFMVKPEEPFQPVKEATQL [L77Y] | 0.0753 | 0.0567 | 0.074 | 0.052 | 0.0619 | 0.0447 | 0.0566 | 0.0625 | 0.0526 | 0.0664 | 0.0641 | 0.0625 |  |  | 0.0599 | 0.0606 |  | 0.0532 | 0.0583
MGESLFKGPRDYNPISSSICHLTNESDGHTTSLYGIGFGPFIITNKHLFRRNNGTLVVQSLHGVFKVKDTTTLQQHLVDGRDMIIQRMPKDFPPFPQKLKFREPQREERICLVTTNFQTKSMSSMVSDTSCTFPSGDGIFWKHWIQTKDGQCGSPLVSTRDGFIVGIHSASNFTNTNNYFTSVPKNFMELLTNQEAQQWVSGWRLNADSVLWGGHKVFMVKPEEPFQPVKEATQL [I86Q] | 0.049 | 0.0356 | 0.0366 | 0.0428 | 0.0488 |  | 0.0515 | 0.0379 | 0.0419 | 0.0373 |  |  |  | 0.0389 | 0.0266 |  | 0.0349 | 0.0579 | 0.0385
MGESLFKGPRDYNPISSSICHLTNESDGHTTSLYGIGFGPFIITNKHLFRRNNGTLVVQSLHGVFKVKDTTTLQQHLVDGRDMIIVRMPKDFPPFPQKLKFREPQREERICLVTTNFQTKSMSSMVSDTSCTFPSGDGIFWKHWIQTKDGQCGSPLVSTRDGFIVGIHSASNFTNTNNYFTSVPKNFMELLTNQEAQQWVSGWRLNADSVLWGGHKVFMVKPEEPFQPVKEATQL [I86V] | 0.112 | 0.0923 | 0.119 | 0.122 | 0.0768 | 0.0779 | 0.123 | 0.0814 | 0.0955 | 0.115 | 0.079 |  | 0.091 | 0.065 |  | 0.0859 | 0.0739 | 0.172 | 
